Test results taken from PubChem BioAssay (NCI).
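These data come from cells grown in 96-well plates and exposed to compound for 48 hours at five concentrations. TGI: concentration producing complete growth inhibition.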 Not every entry of the source has a single result; some have several. This list holds those alone. The source may hold further records. The tests behind the records often covered other concentration ranges, which the source does not state; a value can be the end of its range.

Tested on: SR leukemia
Assay: NCI tumour cell line growth inhibition, 48 h

O=C(/C=C\c1ccc(Cl)c(Cl)c1)c1ccc(Cl)cc1Cl
TGI: 7.45 µM and > 100 µM
